Hit rate of the full screen: of about 310,000 compounds, about 14,000 (4.5%) showed an effect of 50% or more. The effect is printed as a negative number. This is one part of the list.
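Further: peak tail current of the secondary pulse compared with the same well before compound.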

Sequence of human ether-à-go-go-related gene (hERG) potassium channel (Q12809 whole entry, looked up): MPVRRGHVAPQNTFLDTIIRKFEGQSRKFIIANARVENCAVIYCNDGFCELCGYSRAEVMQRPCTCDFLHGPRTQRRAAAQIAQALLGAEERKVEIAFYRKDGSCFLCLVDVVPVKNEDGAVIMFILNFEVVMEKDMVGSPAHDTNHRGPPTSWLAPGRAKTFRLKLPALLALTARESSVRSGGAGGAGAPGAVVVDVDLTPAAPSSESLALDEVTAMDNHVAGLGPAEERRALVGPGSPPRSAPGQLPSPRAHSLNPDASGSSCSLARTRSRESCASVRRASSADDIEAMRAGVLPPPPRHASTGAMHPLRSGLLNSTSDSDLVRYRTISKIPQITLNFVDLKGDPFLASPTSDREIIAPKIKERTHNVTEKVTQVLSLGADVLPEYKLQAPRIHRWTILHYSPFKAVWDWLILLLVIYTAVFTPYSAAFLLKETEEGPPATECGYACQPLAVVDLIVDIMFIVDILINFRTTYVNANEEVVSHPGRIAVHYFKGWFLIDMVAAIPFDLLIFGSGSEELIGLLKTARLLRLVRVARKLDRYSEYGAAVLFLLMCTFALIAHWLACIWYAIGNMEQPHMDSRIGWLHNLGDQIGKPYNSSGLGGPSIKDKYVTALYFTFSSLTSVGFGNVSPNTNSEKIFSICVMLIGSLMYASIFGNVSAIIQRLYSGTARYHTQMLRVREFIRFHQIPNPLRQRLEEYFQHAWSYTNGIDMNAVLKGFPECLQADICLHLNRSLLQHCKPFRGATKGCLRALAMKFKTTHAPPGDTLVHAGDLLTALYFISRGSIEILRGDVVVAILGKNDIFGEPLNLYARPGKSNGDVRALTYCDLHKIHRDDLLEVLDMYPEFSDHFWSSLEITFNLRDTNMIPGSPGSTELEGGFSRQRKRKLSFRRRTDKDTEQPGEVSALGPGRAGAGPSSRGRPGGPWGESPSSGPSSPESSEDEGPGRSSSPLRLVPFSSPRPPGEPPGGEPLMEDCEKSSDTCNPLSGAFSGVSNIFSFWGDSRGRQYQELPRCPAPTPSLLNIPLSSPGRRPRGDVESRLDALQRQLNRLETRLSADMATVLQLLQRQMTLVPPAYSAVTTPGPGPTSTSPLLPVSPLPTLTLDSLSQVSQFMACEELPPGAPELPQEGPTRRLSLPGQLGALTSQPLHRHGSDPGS

The assay has as its target human ether-à-go-go-related gene (hERG) potassium channel (human, UniProt Q12809). Briefly: primary screen, population patch clamp on CHO cells stably expressing hERG.
As to `O=S(=O)(Nc1ccccc1Cl)c1ccc(NS(=O)(=O)c2cccs2)cc1`, the “hERG current change (%, negative = inhibition) at 10uM” value is on record as -10.8%. Regarding `C=CCn1c(SCC(=O)Nc2ccccc2CC)nnc1-c1ccncc1`, the “hERG current change (%, negative = inhibition) at 10uM” value was -11.1%. Take `Cc1ccc(OCc2cn3cccnc3n2)cc1`: the “hERG current change (%, negative = inhibition) at 10uM” value worked out at 0.869%. As for `COc1cc(CO)cc(Br)c1OCC(=O)Nc1cccc2ccccc12`, the “hERG current change (%, negative = inhibition) at 10uM” value is listed as -7.04%. Regarding `CC(=O)Oc1ccc2c(=O)c(N3C(=O)c4ccccc4C3=O)c(C)oc2c1C`, the “hERG current change (%, negative = inhibition) at 10uM” value was determined as 2.68%. For `CCn1c(SCc2ccc(OC)cc2)nnc1-c1ccncc1`, the “hERG current change (%, negative = inhibition) at 10uM” value was -18.9%.

`CCOC(=O)CSc1nnc(NC(=O)CCc2ccccc2)s1`: the “hERG current change (%, negative = inhibition) at 10uM” value is 17%.

Consider `O=C(Nc1ccc(Cl)c([N+](=O)[O-])c1)ONC1=NCCCCC1`, for which the “hERG current change (%, negative = inhibition) at 10uM” value is recorded as 2.02%. The result for `CCC(=O)N1CCN(c2ccc(NC(=O)COc3ccccc3[N+](=O)[O-])cc2)CC1` reads 13.5%.

For the compound `O=C1CS/C(=N/N=C/c2ccccc2)N1c1ccc(O)cc1`, the “hERG current change (%, negative = inhibition) at 10uM” value amounted to 17.6%. Consider `O=C(c1ccccc1F)N(Cc1ccc(F)cc1)C1CCS(=O)(=O)C1` (centres unmarked), for which the “hERG current change (%, negative = inhibition) at 10uM” value was found to be 1.9%. With `C#CC(CO)N(CCN(Cc1ccccc1)C(C#C)CO)Cc1ccccc1` (centres unmarked) the figure was -18.1%. For `CCOc1ccc(CN2CCC(n3nccc3NC(=O)C3CC3)CC2)cc1CO`, the “hERG current change (%, negative = inhibition) at 10uM” value is reported as -57.1%. With `COc1ccc(Cc2nc(-c3ccc(-n4cccc4)cc3)no2)cc1OC`, the “hERG current change (%, negative = inhibition) at 10uM” value was 0.17%. With `Cc1ccc(Sc2cc(NCCCO)c([N+](=O)[O-])c3nonc23)cc1` the figure was 16%; with `N/C(=N\OS(=O)(=O)c1ccccc1)c1cccnc1`, 9.41%. With `O=C(CNc1cccc([N+](=O)[O-])c1)NCCCc1ccccc1`, the “hERG current change (%, negative = inhibition) at 10uM” value is listed as -49%. On to `O=c1cc(CSc2nnc(-c3cccnc3)n2-c2ccccc2F)nc2sccn12`, for which the “hERG current change (%, negative = inhibition) at 10uM” value is given as -4.15%. Take `COc1ccc(C2=NCN(c3ccc(C)cc3)C(=S)N2)cc1`: the “hERG current change (%, negative = inhibition) at 10uM” value came to 5.56%. As to `Cc1cccc(NS(=O)(=O)c2cccc(C(=O)NCCCN3CCCC3=O)c2)c1`, the “hERG current change (%, negative = inhibition) at 10uM” value is -1.94%. The result for `Cc1ccc(C)c(NC(=O)Cc2ccc(S(=O)(=O)N3CCCCC3)s2)c1` reads -19%; that for `COc1ccc(S(=O)(=O)N(CC(=O)NC2CC2)Cc2ccccc2)cc1`, -1.99%. With `COc1ccccc1N1CCN(C(=O)CNC(=O)c2ccc(Cl)cc2Cl)CC1` the figure was -16.2%; with `Cc1ccc(-n2c(CCC(=O)O)ccc2-c2cccs2)cc1`, -1.29%; with `Cc1cc(C)cc(N(CC(=O)Nc2cccc(C)c2C)S(=O)(=O)c2c(C)[nH]c(=O)[nH]c2=O)c1`, -0.837%.

As to `CCCC(=O)OCC(=O)Nc1cc(C(C)(C)C)nn1-c1ccccc1`, the “hERG current change (%, negative = inhibition) at 10uM” value is -35.1%.

For the compound `O/N=C1/CC/C(=N\O)c2nn(-c3ccccc3)nc21`, the “hERG current change (%, negative = inhibition) at 10uM” value is 14%. The result for `CC1CN(C(=O)COC(=O)c2ccc(Cl)c(S(=O)(=O)N3CCCCC3)c2)CC(C)O1` (centres unmarked) reads -13.4%; that for `COC(=O)c1ccc(NC(CC(C)C)C(=O)OC)c([N+](=O)[O-])c1` (centres unmarked), -10.4%; that for `CC(C)(C)n1nnnc1C(c1ccc(Cl)cc1)N1CCSCC1` (centres unmarked), -0.553%. In the case of `COc1ccc(S(=O)(=O)Nc2ccccc2C)cc1C(=O)N1CCOCC1`, the “hERG current change (%, negative = inhibition) at 10uM” value was 12.9%. With `COc1ccccc1N1C(=O)CC(=O)NC1=O`, the “hERG current change (%, negative = inhibition) at 10uM” value is 20.5%. Consider `COc1ccc(NC(=O)C2CC(=O)N(c3ccccc3C)C2)c(OC)c1` (centres unmarked), for which the “hERG current change (%, negative = inhibition) at 10uM” value is recorded as 13.4%. With `O=C(Cn1c(=O)oc2ccccc21)NCCc1ccccc1` the figure was 5.7%; with `CCOC(=O)c1c(NC(=O)/C=C\C(=O)O)sc(C)c1-c1ccccc1`, 0.805%; with `Cc1cccc(C2c3[nH]c4ccccc4c3CCN2C(=O)c2ocnc2C)n1` (centres unmarked), -10.5%. Regarding `CCN(CC)C(=S)SC1CCCCN(C(=O)c2ccc(F)cc2)C1=O` (centres unmarked), the “hERG current change (%, negative = inhibition) at 10uM” value is given as -3.82%. `COCCn1c(SCC(=O)Nc2ccc(S(N)(=O)=O)cc2)nc2ccccc21`: the “hERG current change (%, negative = inhibition) at 10uM” value is -32.1%. Regarding `Cc1cccc(C)c1OCC(=O)Nc1cccc(-c2nnc(-c3ccccc3)o2)c1`, the “hERG current change (%, negative = inhibition) at 10uM” value was 4.24%. As to `Cc1csc(SCC(=O)NC(=O)NCc2ccccc2)n1`, the “hERG current change (%, negative = inhibition) at 10uM” value was -0.745%. With `Cc1cc2occ(CC(=O)N(C)CC(=O)Nc3cccc(F)c3)c2cc1C`, the “hERG current change (%, negative = inhibition) at 10uM” value is on record as 1.3%. On to `N=C1C(c2ccccc2)=C(O)C2CCc3ccccc3N12` (centres unmarked), for which the “hERG current change (%, negative = inhibition) at 10uM” value was 5.66%. For `Cc1cccc(NC(=O)CN(c2ccc(C(C)C)cc2)S(=O)(=O)c2c(C)nn(C)c2C)n1`, the “hERG current change (%, negative = inhibition) at 10uM” value is -12.2%. `COc1ccccc1Nc1ncnc2c1oc1ccccc12.Cl`: the “hERG current change (%, negative = inhibition) at 10uM” value came to 14.2%.

The values above are taken from article PMC4336329 (PLoS ONE, 2015).
